Assay results reported in PubChem BioAssay AID588591 (National Center for Advancing Translational Sciences (NCATS), 2011).
Where “and” joins values, the source holds several entries; their conditions need not be identical. Equal entries are not always repeated. Out of some 390,000 compounds screened, about 4,700 (1.2%) were called active. The shares of active, inactive and inconclusive entries below differ from those in the screen. Calls follow the shape of the dose curve; as a rule, active = well fitted inhibition curve with a large enough effect; inconclusive = small, poorly fitted or top-dose-only effect, or another doubt; inactive = no such curve, though single readings can be large or run the other way. Potencies beside an inconclusive call are fits to weak or partial responses and may not hold up.

Each compound was assayed against DNA polymerase eta (Homo sapiens) (UniProt Q9Y253) (assay: qHTS for Inhibitors of Polymerase Eta). Settings: recombinant Pol eta, fluorescent DNA replication assay; series mostly up to 114 µM.
Chain of UniProt Q9Y253 (Q9Y253 whole entry, looked up): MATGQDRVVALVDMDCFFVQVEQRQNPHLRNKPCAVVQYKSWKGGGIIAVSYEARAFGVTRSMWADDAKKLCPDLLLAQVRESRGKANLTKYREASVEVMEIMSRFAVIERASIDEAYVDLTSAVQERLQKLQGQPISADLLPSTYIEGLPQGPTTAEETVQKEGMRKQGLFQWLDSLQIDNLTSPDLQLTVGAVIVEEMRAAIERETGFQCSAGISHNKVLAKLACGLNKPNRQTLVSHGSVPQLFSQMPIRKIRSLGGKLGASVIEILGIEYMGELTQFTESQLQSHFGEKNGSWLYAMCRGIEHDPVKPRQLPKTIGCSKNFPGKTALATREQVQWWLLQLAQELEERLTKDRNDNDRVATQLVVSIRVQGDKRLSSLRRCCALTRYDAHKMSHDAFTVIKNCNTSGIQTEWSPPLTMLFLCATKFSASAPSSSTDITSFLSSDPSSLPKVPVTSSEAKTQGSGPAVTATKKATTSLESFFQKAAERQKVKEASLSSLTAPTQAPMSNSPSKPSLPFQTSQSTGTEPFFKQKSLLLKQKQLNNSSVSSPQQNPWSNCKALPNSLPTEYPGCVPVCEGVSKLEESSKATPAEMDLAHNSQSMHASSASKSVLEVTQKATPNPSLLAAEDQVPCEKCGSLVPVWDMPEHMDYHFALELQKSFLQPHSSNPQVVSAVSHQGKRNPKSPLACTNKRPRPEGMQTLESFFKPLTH
In short: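 Pol eta (10 nM) was preincubated with compounds for 15 min at room temperature, after which fluorescent replication substrate (50 nM final) was added to start the reaction. Fluorescence was read kinetically at 0 and 10 min.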
Potency is read from the fitted curve at half-maximal effect; tags tell the direction and shape of the fitted curve.

Which Potency does the source give for `CN(c1ccc(Cl)cc1)S(=O)(=O)c1nnc(NC(=O)c2ccco2)s1` here?
The Potency was inconclusive: 89.1 µM [inhibitor, single point] and inconclusive: 39.8 µM [inhibitor, partial curve].

Which Potency does the source give for `CC(C)Cc1nnc(NC(=O)CC(=O)Nc2ccccc2C(=O)O)s1` here?
The Potency was “inactive”.

For `COc1cc(/C=N/NC(=O)c2ccc3c(c2)OCCO3)cc(Br)c1O`, which Potency is on record?
The Potency was “inactive”.

For `CCOc1ccc(-n2c(SCC(=O)N3CCCc4ccccc43)nc3c([nH]c4ccccc43)c2=O)cc1`, which Potency is on record?
Its Potency is “inactive”.

Which Potency does the source give for `O=C(CSc1nnnn1-c1ccc(F)cc1)Nc1nc2ccccc2s1` here?
Its Potency is inconclusive: 20 µM [inhibitor, single point].

`CC1CCCCC1NC(=O)CSc1ccsc1[N+](=O)[O-]` (stereo unspecified) was tested. Which Potency did it give?
The Potency was “inactive”.

Which Potency does the source give for `O=C(c1ccco1)N(Cc1ccc2c(c1)OCO2)Cc1cc2cc3c(cc2[nH]c1=O)OCO3` here?
Its Potency is inconclusive: 20 µM [inhibitor, full curve].

Which Potency does the source give for `N#C/C(=N\Nc1ccc(S(=O)(=O)N2CCc3ccccc32)cc1)C(N)=S` here?
The Potency was inconclusive: 89.1 µM [inhibitor, single point].

For `C/C(=C(/NC(=O)c1ccccc1)C(=O)O)c1ccco1`, which Potency is on record?
The Potency was inconclusive: 31.6 µM [inhibitor, partial curve, poor fit].

`CCc1nn2c(=O)cc(COc3ccc(/C=C4\C(=N)N5N=C(C)SC5=NC4=O)cc3)nc2s1` was tested. Which Potency did it give?
The Potency was active: 7.08 µM.

With `CC(=O)Nc1cccc(C(=O)/C=C/c2ccc(N(C)C)cc2)c1` as the compound, how does the Potency read?
The Potency was inconclusive: 39.8 µM [inhibitor, single point].

For `CC1(C)C(=O)Nc2ccccc2N1C(=O)CSc1nnc2ccccn12`, which Potency is on record?
Its Potency is inconclusive: 25.1 µM [inhibitor, full curve].

`O=C(Nc1cccc(NC(=O)c2ccc(Br)o2)n1)c1ccc(Br)o1` was tested. Which Potency did it give?
The Potency was inconclusive: 89.1 µM [inhibitor, partial curve, poor fit].

With `COc1ccc(-c2ccc(=O)n(CC(=O)Nc3ccc4c(c3)OCCO4)n2)cc1` as the compound, how does the Potency read?
Its Potency is “inactive”.

With `CC1Cc2cc(/C(O)=C3/C(=O)C(=O)N(CC4CCCO4)C3c3ccco3)ccc2O1` (stereo unspecified) as the compound, how does the Potency read?
Its Potency is active: 14.1 µM.

For `CCOC(=O)c1sc(NC(=O)CSc2nnc(Cc3ccccc3)o2)c(C#N)c1C`, which Potency is on record?
The Potency was inconclusive: 31.6 µM [inhibitor, single point].

`Cc1nc2c(ccc3nc(NC(=O)c4ccc5c(c4)OCCO5)sc32)s1` was tested. Which Potency did it give?
The Potency was inconclusive: 44.7 µM [inhibitor, partial curve, poor fit].

Which Potency does the source give for `CC(=O)Nc1ccc2cc3ccc(NC(C)=O)cc3nc2c1` here?
The Potency was inconclusive: 35.5 µM [inhibitor, partial curve, poor fit].

`COc1ccc(/C=C/C(=O)O)cc1S(=O)(=O)NCc1cccnc1` was tested. Which Potency did it give?
The Potency was inconclusive: 28.2 µM [inhibitor, full curve, poor fit].

For `Cc1ccc(S(=O)(=O)Nc2nc3n(n2)C(c2ccc(Cl)cc2)C=C(c2ccccc2)N3)cc1` (stereo unspecified), which Potency is on record?
Its Potency is active: 89.1 µM.

For `COC(=O)C1CC2=C(CCCC2=O)N(Cc2ccccc2)C1=O` (stereo unspecified), which Potency is on record?
The Potency was “inactive”.

For `COc1ccccc1C(=O)N/C(=C/c1ccco1)C(=O)Nc1ccc(C(=O)O)cc1`, which Potency is on record?
The Potency was active: 17.8 µM.

How did the Potency turn out when `CCCN(C(=O)Cn1nc(Cc2cccnc2)c2ccccc2c1=O)c1ccc(C(C)C)cc1` was run?
Its Potency is inconclusive: 89.1 µM [inhibitor, partial curve, poor fit].

How did the Potency turn out when `Cc1oc2c(c(C)cc3oc(=O)c(CC(=O)NCCc4ccc(Cl)cc4)c(C)c32)c1C` was run?
Its Potency is “inactive”.

For `Cc1ccc(S(=O)(=O)N(C)CC(=O)N(C)CCOc2ccccc2)cc1`, which Potency is on record?
The Potency was “inactive”.

Which Potency does the source give for `COc1ccccc1C1CC(=O)Oc2cc(C)c(Cl)cc21` (stereo unspecified) here?
Its Potency is inconclusive: 56.2 µM [inhibitor, partial curve, poor fit].

Which Potency does the source give for `COc1cc(/C=C2\SC(N)=NC2=O)ccc1OCC(=O)Nc1ccc(C)cc1` here?
The Potency was inconclusive: 2.82 µM [inhibitor, partial curve, poor fit].

Which Potency does the source give for `CC(=O)Nc1ccc(S(=O)(=O)N/N=C/c2ccc(C)o2)cc1` here?
The Potency was inconclusive: 56.2 µM [inhibitor, partial curve, poor fit].

With `O=C1C(=O)N(CCO)C(c2cccc(F)c2)/C1=C(\O)c1ccc(Cl)cc1` (stereo unspecified) as the compound, how does the Potency read?
The Potency was “inactive”.

How did the Potency turn out when `C#Cc1ccc(CN2CCC(Oc3ccc(C(=O)NCc4ccccn4)cc3)CC2)cc1` was run?
Its Potency is inconclusive: 89.1 µM [inhibitor, partial curve, poor fit].

`CCC(C)Sc1cccc(-c2nc3cc(C)ccn3c2NCc2ccccc2)c1` (stereo unspecified) was tested. Which Potency did it give?
Its Potency is inconclusive: 100 µM [inhibitor, partial curve, poor fit].

For `Cc1nc(NC(=S)Nc2ccccc2)sc1C`, which Potency is on record?
Its Potency is inconclusive: 100 µM [inhibitor, partial curve, poor fit].

For `N#Cc1c(NC(=O)c2cccnc2)sc2c1CCC2`, which Potency is on record?
The Potency was inconclusive: 15.8 µM [inhibitor, full curve, poor fit].

For `Cc1ccc(S(=O)(=O)N2CCCCC2)cc1C(=O)Nc1ccc(S(=O)(=O)Nc2ncccn2)cc1`, which Potency is on record?
Its Potency is active: 14.1 µM.

Which Potency does the source give for `CCOC(=O)C(C)Sc1ncnc2c1nnn2-c1ccc(F)cc1` (stereo unspecified) here?
The Potency was inconclusive: 31.6 µM [inhibitor, single point].

With `O=S(=O)(NCC1CCCO1)c1ccc(S(=O)(=O)N(Cc2ccc(F)cc2)Cc2ccccn2)cc1` (stereo unspecified) as the compound, how does the Potency read?
Its Potency is “inactive”.

`COc1ccc(N(C(=O)c2snc(C(N)=O)c2N)C(C(=O)NC2CCCC2)c2cccs2)cc1OC` (stereo unspecified) was tested. Which Potency did it give?
Its Potency is inconclusive: 15.8 µM [inhibitor, full curve].

For `CCc1cc[n+](C2=C([O-])c3ccccc3C(=O)/C2=N\S(=O)(=O)c2cccs2)cc1`, which Potency is on record?
Its Potency is active: 50.1 µM.

Which Potency does the source give for `CON(C)c1nc(C2CCCCC2)c2cc(C)ccc2n1` here?
The Potency was inconclusive: 14.1 µM [inhibitor, partial curve, poor fit].

`Nc1c(C=C2C=CC(=O)C=C2)c(=O)nc2sc(CC(=O)N3CCCCC3)nn12` was tested. Which Potency did it give?
Its Potency is active: 39.8 µM.

With `N#CC(C#N)=Cc1cc2ccccc2nc1N1CCCCC1` as the compound, how does the Potency read?
Its Potency is inconclusive: 35.5 µM [inhibitor, single point].

`N#Cc1c(NC(=O)CSc2ncccn2)oc(-c2ccccc2)c1-c1ccccc1` was tested. Which Potency did it give?
Its Potency is active: 10 µM.

For `COC(=O)c1cc(NC(=S)Nc2cc(Cl)cc(Cl)c2)cc(C(=O)OC)c1`, which Potency is on record?
The Potency was inconclusive: 89.1 µM [inhibitor, partial curve, poor fit].

For `CCOc1ccccc1N1CCN(S(=O)(=O)c2ccc3c4c(cccc24)C(=O)N3)CC1`, which Potency is on record?
The Potency was active: 79.4 µM.

Which Potency does the source give for `CC(=O)c1c(C)[nH]c(C(=O)CSc2nc3ccccc3n2C)c1C` here?
Its Potency is inconclusive: 5.01 µM [inhibitor, partial curve, poor fit].

`O=c1[nH]c2ccc(S(=O)(=O)Nc3cc(Cl)ccc3O)cc2o1` was tested. Which Potency did it give?
The Potency was active: 89.1 µM.

With `Cc1ccc(-c2csc(NC(=O)CSc3nnc4c(n3)[nH]c3ccccc34)n2)cc1` as the compound, how does the Potency read?
The Potency was inconclusive: 39.8 µM [inhibitor, single point].

For `COc1cc(/C=C2/C(=O)N(c3ccc([N+](=O)[O-])cc3)N=C2N2CCOCC2)ccc1O`, which Potency is on record?
The Potency was inconclusive: 79.4 µM [inhibitor, partial curve, poor fit].

How did the Potency turn out when `Cc1c(NC(=O)c2ccc(-c3ccc(F)cc3)o2)cccc1-c1nc2ncccc2o1` was run?
Its Potency is inconclusive: 89.1 µM [inhibitor, partial curve].

How did the Potency turn out when `Cc1cc(/C=C2\SC(=S)N(C)C2=O)c(C)n1-c1cccc(O)c1` was run?
Its Potency is inconclusive: 8.91 µM [inhibitor, partial curve, poor fit].

With `O=c1c(O)c(-c2ccc(O)cc2)oc2cc(O)cc(O)c12` as the compound, how does the Potency read?
The Potency was active: 25.1 µM.

With `Cc1ccc(C(=O)OCC(=O)Nc2sc3c(c2C#N)CCCC3)cc1NC(=O)c1ccco1` as the compound, how does the Potency read?
The Potency was inconclusive: 14.1 µM [inhibitor, full curve, poor fit].

How did the Potency turn out when `O=C(CCSCCC(=O)NCc1ccco1)NCc1ccco1` was run?
The Potency was active: 11.2 µM.

How did the Potency turn out when `Cc1nc2ccc(S(=O)(=O)N(CC(=O)Nc3ccc(Cl)cc3)Cc3ccccc3)cc2s1` was run?
Its Potency is “inactive”.

Which Potency does the source give for `COc1ccc(CNC(=O)c2ccc3c(c2)NC(=O)C(CS(=O)(=O)Cc2ccccc2Cl)N3)cc1` (stereo unspecified) here?
The Potency was inconclusive: 89.1 µM [inhibitor, single point].

With `COc1ccc(OC)c(NP2(=O)OCC(C)([N+](=O)[O-])CO2)c1` (stereo unspecified) as the compound, how does the Potency read?
The Potency was “inactive”.

How did the Potency turn out when `COc1ccc(C(=O)CCN2CCN(c3ccccc3F)CC2)cc1` was run?
The Potency was inconclusive: 89.1 µM [inhibitor, partial curve, poor fit].

For `CCn1cc(C(=O)NCCOC)c(=O)c2cc(S(=O)(=O)N3CCOCC3)ccc21`, which Potency is on record?
Its Potency is “inactive”.

Which Potency does the source give for `CCCSc1cc(NCCOC(C)=O)c([N+](=O)[O-])c2nonc12` here?
Its Potency is “inactive”.

How did the Potency turn out when `Cc1cccc(NC(=O)CSc2cn(CC(=O)N3CCOCC3)c3ccccc23)c1` was run?
The Potency was “inactive”.

With `Nc1[nH]c(=O)[nH]c(=O)c1N=Cc1ccccc1` as the compound, how does the Potency read?
Its Potency is inconclusive: 79.4 µM [inhibitor, partial curve, poor fit].

`CCC1C(=O)Nc2nc(-c3ccccc3)c(-c3ccccc3)n2N=C1C` (stereo unspecified) was tested. Which Potency did it give?
The Potency was inconclusive: 25.1 µM [inhibitor, partial curve, poor fit].

How did the Potency turn out when `O=C(Nc1cc(S(=O)(=O)N2CCCCCC2)ccc1OCC(F)(F)F)C1CCC1` was run?
Its Potency is inconclusive: 79.4 µM [inhibitor, partial curve, poor fit].

Which Potency does the source give for `CC1=NN(c2ccc(C)cc2)C(=O)/C1=C\C=C\c1ccccc1` here?
Its Potency is inconclusive: 56.2 µM [inhibitor, partial curve, poor fit].

Which Potency does the source give for `CCCCNS(=O)(=O)c1ccc2nc(SCC(=O)Nc3sccc3C#N)[nH]c2c1` here?
Its Potency is inconclusive: 25.1 µM [inhibitor, partial curve, poor fit].

With `Cc1ccc(OCCCN2C(=O)C(=O)c3cccc(C)c32)cc1` as the compound, how does the Potency read?
The Potency was inconclusive: 44.7 µM [inhibitor, partial curve, poor fit].
